Experimental data reported in the supplement of paper PMC6135742.
Where a name gives a salt, the structure may show the parent alone. ± gives the standard deviation of the averaged measurements. The full ranking holds about 2,600 compounds; the median of “MBP+ mature oligodendrocyte number relative to DMSO vehicle control” is about -0.34, and the highest 2% start at about 13. The list shows a part of the results.

system: jimpy (Plp1 jimpy) mouse iPSC-derived oligodendrocyte progenitor cells; assay: MBP+ mature oligodendrocyte number relative to DMSO vehicle control (SDs above negative control mean); higher = more surviving jimpy oligodendrocytes (rescue); details: 10 µM; 3 days
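Further: 10 µM single dose with 3-day oligodendrocyte differentiation.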

| Structure (SMILES) | MBP+ mature oligodendrocyte number |
| --- | --- |
| CCCCCCCCCCCC1=C(O)C(=O)C=C(O)C1=O [Embelin] | 3.95 |
| COc1c2ccoc2cc2oc(=O)ccc12 [Bergapten] | -1.11 |
| CNCc1cc(-c2ccccc2F)n(S(=O)(=O)c2cccnc2)c1 | 2.37 |
| O=C1C(O)=C([C@H]2CC[C@H](c3ccc(Cl)cc3)CC2)C(=O)c2ccccc21 [Atovaquone] | 0.104 |
| CC(C)NCC(O)c1ccc(O)c(O)c1 (single isomer, unassigned; (-)) [(-)-Isoproterenol hydrochloride] | -0.48 |
| NCCNS(=O)(=O)c1cccc2c(Cl)cccc12 [A3 hydrochloride] | -2.82 |
| Cc1ccccc1C(OCCN(C)C)c1ccccc1 (centres undefined) [Orphenadrine hydrochloride] | -1.11 |
| Cc1ccccc1C(OCCN(C)C)c1ccccc1 (centres undefined) [Orphenadrine Citrate] | -0.467 |
| C=C(c1ccc(C(=O)O)cc1)c1cc2c(cc1C)C(C)(C)CCC2(C)C [Bexarotene] | 0.996 ± 0.18 |
| CN(C)CCCCC(=O)Nc1ccc(NC(=S)NC(=O)c2ccc(C(C)(C)C)cc2)cc1 [Tenovin-6] | < -6.35 |
| CC(C)(C)NCC(O)c1cc(O)cc(O)c1 (centres undefined) [Terbutaline hemisulfate] | 0.146 |
| O=C(O)CCCCC1CCSS1 (racemic) [(±)-alpha-Lipoic Acid] | -1.6 |
| CC[N+](CC)(CC)CCOc1cccc(OCC[N+](CC)(CC)CC)c1OCC[N+](CC)(CC)CC [Gallamine triethiodide] | -1.8 |
| CC[N+](CC)(CC)CCOc1cccc(OCC[N+](CC)(CC)CC)c1OCC[N+](CC)(CC)CC [Gallamine Triethiodide] | -0.108 |
| CCOC(=O)[N-]c1c[n+](N2CCOCC2)no1 [Molsidomine] | 1.13 |
| CCN(CCCOc1ccc2c(Nc3cc(CC(=O)Nc4cccc(F)c4)[nH]n3)ncnc2c1)CCOP(=O)(O)O [Barasertib (AZD1152-HQPA)] | -3.82 |
| CCc1oc2ccccc2c1C(=O)c1cc(Br)c(O)c(Br)c1 [Benzbromarone] | 0.238 |
| CC/C(=C(\c1ccccc1)c1ccc(OCCN(C)C)cc1)c1ccccc1 [Tamoxifen] | < -4.47 |
| CC/C(=C(\c1ccccc1)c1ccc(OCCN(C)C)cc1)c1ccccc1 [Tamoxifen citrate] | -3.78 |
| CC/C(=C(\c1ccccc1)c1ccc(OCCN(C)C)cc1)c1ccccc1 [Tamoxifen Citrate] | -5.06 |
| CCCCC[C@H](O)/C=C/[C@H]1[C@H](O)CC(=O)[C@@H]1CCCCCCC(=O)O [Alprostadil] | 0.793 |
| COC(=O)[C@]12CCC(C)(C)C[C@H]1[C@H]1C(=O)C=C3[C@@]4(C)C=C(C#N)C(=O)C(C)(C)[C@@H]4CC[C@@]3(C)[C@]1(C)CC2 [Bardoxolone Methyl] | -4.64 |
| O=C(O)c1cccnc1C(=O)O [Quinolinic acid] | -0.533 |
| CCN1CCC[C@H]1CNC(=O)c1c(O)c(Cl)cc(Cl)c1OC [S(+)-Raclopride L-tartrate] | -0.533 |
| O=C(O)c1ccccc1 [Benzoic Acid] | 0.66 |
| CN(CC[C@@H](Oc1ccc(C(F)(F)F)cc1)c1ccccc1)CC(=O)[O-].[Li+] | 0.588 |
| CC[C@@H]([C@H](C)O)n1ncn(-c2ccc(N3CCN(c4ccc(OC[C@@H]5CO[C@@](Cn6cncn6)(c6ccc(F)cc6F)C5)cc4)CC3)cc2)c1=O [Posaconazole] | -6.35 |

| Structure (SMILES) | MBP+ mature oligodendrocyte number |
| --- | --- |
| CN1CCC[C@@H]1CCO[C@](C)(c1ccccc1)c1ccc(Cl)cc1 [Clemastine Fumarate] | < -5.15 |
| CN1CCC[C@@H]1CCO[C@](C)(c1ccccc1)c1ccc(Cl)cc1 [Clemastine fumarate] | -3.26 |
| CCOc1ccc(NC(C)=O)cc1 [Phenacetin] | -0.22 |
| O=C(c1ccc(OCCCc2c[nH]cn2)cc1)C1CC1 [Ciproxifan] | 2.09 |
| O=C(c1ccc(OCCCc2c[nH]cn2)cc1)C1CC1 [Ciproxifan hydrochloride] | 0.921 |
| CC(C)[C@H](N)C(=O)OCC(CO)OCn1cnc2c(=O)[nH]c(N)nc21 (some centres undefined) [Valganciclovir hydrochloride hydrate] | 1.08 |
| CC(C)[C@H](N)C(=O)OCC(CO)OCn1cnc2c(=O)[nH]c(N)nc21 (some centres undefined) [Valganciclovir HCl] | 3.45 |
| CC(C(=O)O)c1ccc(C(=O)c2cccs2)cc1 (centres undefined) [Suprofen] | -1.01 |
| COc1cc2ncnc(Nc3ccc(F)c(Cl)c3)c2cc1OCCCN1CCOCC1 [Gefitinib (ZD1839)] | -6.52 |
| CN1CCN(c2nc(C3=C(c4c[nH]c5ccccc45)C(=O)NC3=O)c3ccccc3n2)CC1 [Sotrastaurin] | -4.18 |
| CCN1CCN(Cc2ccc(Nc3ncc(F)c(-c4cc(F)c5nc(C)n(C(C)C)c5c4)n3)nc2)CC1 | < -6.35 |
| COCCc1ccc(OCC(O)CNC(C)C)cc1 (centres undefined) [Metoprolol Tartrate] | -1.46 |
| COc1ccc(CN2CCN(C(c3ccc(F)cc3)c3ccc(F)cc3)CC2)c(OC)c1OC [Lomerizine HCl] | -6.27 |
| CC(C)Cc1ccc(C(C)C(=O)O)cc1 (centres undefined) [Ibuprofen] | 3.85 |
| COC(=O)C(N)Cc1ccc(Cl)cc1 (racemic) [DL-p-Chlorophenylalanine methyl ester hydrochloride] | -0.433 |
| Cc1cnc(C(=O)O)c[n+]1[O-] [Acipimox] | 1.06 |
| O=C(c1cncc(Br)c1)N1CCC(N2CCCC2)CC1 | 2.61 |
| O=c1c(O)c(-c2ccc(O)c(O)c2)oc2cc(O)cc(O)c12 [Quercetin dihydrate] | -3.25 |
| O=c1c(O)c(-c2ccc(O)c(O)c2)oc2cc(O)cc(O)c12 [Quercetin Dihydrate] | -3.19 |
| O=c1c(O)c(-c2ccc(O)c(O)c2)oc2cc(O)cc(O)c12 [Quercetin] | -2.91 |
| O=C(O)C1(C(=O)O)CCC1.[NH2-].[NH2-].[Pt+2] [Carboplatin] | -1.86 ± 0.3 |
| N[C@H](C(=O)O)[C@H]1C[C@@H]1C(=O)O [(2S,1'S,2'S)-2-(carboxycyclopropyl)glycine] | 0.555 |
| N[C@@H](Cc1ccc(O)c(I)c1)C(=O)O [3-Iodo-L-tyrosine] | -0.049 |
| O=C(O)[C@H]1O[C@@H](Oc2cc3oc(-c4ccccc4)cc(=O)c3c(O)c2O)[C@H](O)[C@@H](O)[C@@H]1O [Baicalin] | 0.395 |
| Nc1ccc(S(=O)(=O)Nc2ccccn2)cc1 [Sulfapyridine] | -0.467 |
| Nc1ccn([C@@H]2O[C@H](CO)[C@@H](O)[C@@H]2O)c(=O)n1 [Cytosine-1-beta-D-arabinofuranoside hydrochloride] | -1.85 |
| Nc1ccn([C@@H]2O[C@H](CO)[C@@H](O)[C@@H]2O)c(=O)n1 [Cytarabine] | -2 |

| Structure (SMILES) | MBP+ mature oligodendrocyte number |
| --- | --- |
| Nc1ncnc2c1ncn2C1CCCO1 (centres undefined) | 0.217 |
| Cc1[nH]c2ccccc2c1CCNCc1ccc(/C=C/C(=O)NO)cc1 [Panobinostat (LBH589)] | < -6.7 |
| c1cncc(CN2CCC(n3ncc4c(N5CCOCC5)nc(-c5ccc6[nH]ccc6c5)nc43)CC2)c1 | < -6.01 |
| COC1CCN(C(=O)c2cc(Cc3n[nH]c(=O)c4ccccc34)ccc2F)CC1 | 2.69 |
| CCOc1ccccc1OC(c1ccccc1)C1CNCCO1 (centres undefined) [Reboxetine mesylate] | -2.75 |
| O=c1[nH]cnc2c1ncn2[C@@H]1O[C@H](CO)[C@@H](O)[C@H]1O [Inosine] | -0.556 |
| CCCCOc1cc(CC2CNC(=O)N2)ccc1OC (centres undefined) | -0.668 |
| O=C1NC(=O)/C(=C/c2ccc3c(c2)OC(F)(F)O3)S1 | 5.1 |
| CC(C)Cn1c(=O)n(C)c(=O)c2[nH]cnc21 [3-Isobutyl-1-methylxanthine] | 0.657 |
| COc1cc([C@@H]2c3cc4c(cc3[C@@H](O[C@@H]3O[C@@H]5CO[C@@H](c6cccs6)O[C@H]5[C@H](O)[C@H]3O)[C@H]3COC(=O)[C@H]23)OCO4)cc(OC)c1O [Teniposide] | < -5.15 |
| O=c1ccc2ccccc2o1 [Coumarin] | 1.84 |
| Nc1ccc(C(=O)Nc2cccc(-c3nc(N4CCOCC4)c4oc5ncccc5c4n3)c2)cn1 | -6.52 |
| CN(C)CCCN1c2ccccc2Sc2ccc(Cl)cc21 [Chlorpromazine hydrochloride] | < -3.34 |
| CN(C)CCCN1c2ccccc2Sc2ccc(Cl)cc21 [Chlorpromazine HCl] | -4.7 |
| Cc1nc(-c2ccc(OCC(C)C)c(C#N)c2)sc1C(=O)O [Febuxostat] | 3.94 |
| CN(C)c1ccc(C(=C2C=CC(=[N+](C)C)C=C2)c2ccc(N(C)C)cc2)cc1 [Crystal Violet] | < -5.15 |
| COc1ccc(CC2c3cc(OC)c(OC)cc3CC[N+]2(C)CCC(=O)OCCCCCOC(=O)CC[N+]2(C)CCc3cc(OC)c(OC)cc3C2Cc2ccc(OC)c(OC)c2)cc1OC (centres undefined) [Atracurium Besylate] | 1.6 |
| CC(=O)[C@H]1CC[C@H]2[C@@H]3CC=C4C[C@@H](O)CC[C@]4(C)[C@H]3CC[C@]12C [Pregnenolone] | -3.89 |
| Oc1cc2c(cc1O)[C@@H]1c3ccc(O)c(O)c3OC[C@]1(O)C2 [Hematoxylin] | 1.57 |
| CC(C(=O)O)c1ccc2c(c1)CC(=O)c1ccccc1S2 (centres undefined) [Zaltoprofen] | -0.848 |
| Cc1nc(Nc2ncc(C(=O)Nc3c(C)cccc3Cl)s2)cc(N2CCN(CCO)CC2)n1 [Dasatinib] | < -6.7 |
| CCN1CCN(Cc2ccc(-c3cc4c(N[C@H](C)c5ccccc5)ncnc4[nH]3)cc2)CC1 | < -5.15 |
| CCOC(=O)c1c(CSc2ccccc2)n(C)c2cc(Br)c(O)c(CN(C)C)c12 [Arbidol HCl] | -3.63 |
| Cc1cc(Nc2nc(N[C@@H](C)c3ccc(F)cc3)c(C#N)cc2F)n[nH]1 | -4.36 |
| CCCCN1CCCCC1C(=O)Nc1c(C)cccc1C (centres undefined) [Bupivacaine HCl] | -0.388 |
